Test results from PubChem BioAssay AID624296 (National Center for Advancing Translational Sciences (NCATS), 2012).
Among all 350,000 compounds or so, about 9,900 (2.8%) were called active. Inconclusive means that the source gave no clear call. Such entries were picked first, then a sample of the others. The call rests on the fitted dose curve; in most records, active means well fitted activation curve with a large enough effect; inconclusive means small, poorly fitted or top-dose-only effect; inactive means no such curve, though single readings can be large or run the other way. Potencies of inconclusive entries are left out as doubtful fits.

experiment: A quantitative high throughput screen for small molecules that induce DNA re-replication in MCF 10a normal breast cells.; further: nearly all actives have a fitted effect of over 50% in size; conditions: MCF 10A DNA re-replication, Hoechst nuclear intensity, 48 h; series mostly up to 46.1 µM
Potency means the concentration at half of the fitted maximal effect; tags describe the fitted curve by direction and shape.

| Structure (SMILES) | Potency |
| --- | --- |
| COCC(=O)Nc1ccc(C)c(Cl)c1 | inactive |
| CCn1c2ccccc2c2cc(C3C(C#N)=C(N)Oc4n[nH]c(COC)c43)ccc21 (stereo not drawn) | inconclusive [activator, single point] |
| COCCNC(=O)c1ccccc1NC(=O)c1cccc([N+](=O)[O-])c1C | inactive |
| Cc1ccc(N/N=C(\C#N)C(=N)N2CCCCCC2)cc1 | inactive |
| CCCOc1ccc(N2C(=O)CC(N(CCc3ccc(OC)c(OC)c3)C(=S)Nc3ccccc3)C2=O)cc1 (stereo not drawn) | inconclusive [activator, partial curve, poor fit] |
| Cc1sc2nc3ccc(NCc4ccco4)nn3c(=O)c2c1C | inconclusive [activator, partial curve] |
| COCCNC(=S)N1CCc2cc(OC)c(OC)cc2C1COc1cc(C)cc(C)c1 (stereo not drawn) | inconclusive [activator, single point] |
| N#CC1=C(N)Oc2c(O)cc3ccccc3c2C1c1ccsc1 (stereo not drawn) | inconclusive [activator, single point] |
| Cc1cccc(NC(=O)c2ccc(NC(=O)c3ccccc3Br)cc2)c1 | inconclusive [activator, partial curve, poor fit] |
| CC1Sc2ccc(S(=O)(=O)N3CCC(C(=O)NCc4ccc(Cl)cc4)CC3)cc2NC1=O (stereo not drawn) | inconclusive [activator, partial curve, poor fit] |
| CN1CC(c2ccccc2)C2(SC(=S)N(Cc3ccco3)C2=O)C12C(=O)Nc1ccccc12 (stereo not drawn) | active: 6.51 µM |
| COc1ccccc1C1c2ccc3ccccc3c2Oc2ncn(CCN(C)C)c(=N)c21 (stereo not drawn) | active: 9.2 µM |
| N#Cc1c(N2C(=O)Nc3ccccc3N2O)sc2c1CCCCCC2 | inconclusive [activator, partial curve, poor fit] |
| O=C(NCCN1CCOCC1)c1ccc2c(c1)N(Cc1ccccc1F)C(=O)c1ccccc1S2 | inconclusive [activator, single point] |
| CCOC(=O)c1c(C)[nH]c(N=Nc2ccccc2)c1C | inconclusive [activator, partial curve, poor fit] |
| COn1c(SC2CCCCC2)nc2ccccc2c1=O | inconclusive [activator, partial curve, poor fit] |
| CCC(=O)NC(c1ccccc1)c1c(O)ccc2ccccc12 (stereo not drawn) | inconclusive [activator, partial curve, poor fit] |
| CC1CC(C)CN(S(=O)(=O)c2ccc(Oc3ccc([N+](=O)[O-])cc3)cc2)C1 (stereo not drawn) | inconclusive [activator, single point] |
